Source: the supplement of paper PMC3334620
Whole data set: some 33,000 sequences, median “E-score (-0.5 to 0.5)” near -0.032, cut for the highest 2% near 0.36. The list shows a part of the results.

Target: T1, Sko1 (UniProt Q02100)
T1 sequence: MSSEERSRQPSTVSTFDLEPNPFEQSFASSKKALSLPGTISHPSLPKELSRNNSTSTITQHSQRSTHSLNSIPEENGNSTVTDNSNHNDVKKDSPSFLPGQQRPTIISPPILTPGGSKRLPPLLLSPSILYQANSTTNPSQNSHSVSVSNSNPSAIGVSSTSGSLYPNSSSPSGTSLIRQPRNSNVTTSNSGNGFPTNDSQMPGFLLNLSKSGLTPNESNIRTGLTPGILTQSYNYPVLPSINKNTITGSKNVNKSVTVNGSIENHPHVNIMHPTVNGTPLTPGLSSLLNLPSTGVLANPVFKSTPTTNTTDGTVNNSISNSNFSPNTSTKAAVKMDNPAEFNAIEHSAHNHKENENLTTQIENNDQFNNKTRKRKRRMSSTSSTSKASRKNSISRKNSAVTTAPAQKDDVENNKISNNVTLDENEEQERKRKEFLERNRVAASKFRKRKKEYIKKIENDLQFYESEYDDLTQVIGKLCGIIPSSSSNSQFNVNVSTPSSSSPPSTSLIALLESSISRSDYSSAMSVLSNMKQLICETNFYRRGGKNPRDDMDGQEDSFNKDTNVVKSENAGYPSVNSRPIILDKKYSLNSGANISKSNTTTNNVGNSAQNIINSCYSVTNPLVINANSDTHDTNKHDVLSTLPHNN
Test: PBM E-score (8-mer binding enrichment) (E-score (-0.5 to 0.5)); higher = stronger / more preferred TF binding; most listed sequences are background and not binding sites
Settings: protein concentration: 200 nM; construct: GST-full length
In short: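 Yeast transcription factors, full-length or as DNA-binding domains, were expressed with a GST tag using PURExpress in vitro transcription/translation. At about 100-200 nM they were applied to universal all-10-mer Agilent arrays, double-stranded by primer extension on fresh or once-stripped slides. Fluorescent anti-GST detected bound protein, and masliner normalised the scans. E-scores for ungapped eight-base words, pooled with reverse complements, came from the Universal PBM Analysis Suite.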

Row | Sequence | PBM E-score
1 | GTCAGTTA | 0.112
2 | CCGGCAAA | -0.188
3 | GTAATAAA | 0.347
4 | ACACCATC | 0.0405
5 | AGCACAAT | 0.0688
6 | ATCTACTG | 0.0371
7 | GCACGTTA | 0.274
8 | ACCGACGT | 0.376
9 | CATTCACA | 0.0371
10 | ACTTGCTC | -0.156
11 | CCCAGGCG | -0.306
12 | CTCTTCTC | -0.22
13 | ACCATAAT | 0.129
14 | CATGTTTA | 0.165
15 | GGAACTGA | -0.208
16 | ACGGATAG | 0.00602
17 | ATGTAAGG | 0.0982
18 | CCAGAGCC | -0.215
19 | GACTAATA | 0.123
20 | CGCTTCTC | -0.292
21 | ACGGCCGA | -0.124
22 | CAGCGTCG | -0.103
23 | GATCTATA | 0.0628
24 | CTGGCCAC | -0.101
25 | ACCTGTCC | -0.267

Row | Sequence | PBM E-score
26 | AGTTAGCC | -0.195
27 | CAAACCCG | -0.0847
28 | AGTGAACA | 0.0913
29 | TGGTCGAA | -0.0856
30 | TAGAAATA | 0.161
31 | GATTTGTA | 0.146
32 | GTTGTTGA | 0.165
33 | CGCTTTAG | -0.00956
34 | AGAATGCC | -0.137
35 | AATTTTGC | 0.118
36 | AAGCCCTG | -0.247
37 | AATATGCG | 0.126
38 | GAAATGAC | 0.318
39 | GCAGGACC | -0.196
40 | CCACTATA | 0.0141
41 | GTTTCCGA | -0.0513
42 | CCCATTCG | 0.104
43 | GCCGGAGC | -0.383
44 | CAGCATCG | -0.332
45 | AGGGATTC | -0.113
46 | CGCTGGCA | -0.109
47 | CCATATGC | 0.02
48 | CCCCATAA | -0.144
49 | CCTATTAG | 0.0617
50 | ACTCGCCG | -0.0899

Row | Sequence | PBM E-score
51 | CATCCCGC | -0.0522
52 | CAGACTCA | 0.0156
53 | GTACACCA | -0.0836
54 | AGCCGCGA | -0.28
55 | ATACGAGG | -0.146
56 | CGTCGCGC | 0.121
57 | GGACGATA | 0.0228
58 | AAACTAGT | -0.079
59 | GATTCCGA | -0.184
60 | ATGAGCGC | -0.0132
61 | AAAGATTA | 0.143
62 | CGCTCTTC | -0.252
63 | GGACAGAA | 0.00525
64 | CCTAACAG | -0.102
65 | TCGCCTAA | -0.0546
66 | CATGGCTA | -0.0685
67 | GCTTATTA | 0.14
68 | ACGTTATG | 0.419
69 | AGCTCATC | -0.186
70 | AACTCGAA | 0.0158
71 | CGCAGTAC | 0.118
72 | GACGGGCA | -0.145
73 | CTTGCTGC | -0.0891
74 | CGTTCAAC | 0.112
75 | GATGCAAC | -0.0594

Row | Sequence | PBM E-score
76 | TTAAGGAA | 0.0566
77 | CTAGATCA | -0.0181
78 | ACCGTGAG | -0.208
79 | AGGAAAGG | -0.329
80 | ACACGAAG | 0.147
81 | AAATGTTC | 0.129
82 | CTTTGAGA | 0.125
83 | ATTCCGCA | -0.0897
84 | AACCCATG | 0.112
85 | CAACATTC | -0.167
86 | TGCCACAA | 0.0326
87 | CGTTACGC | 0.362
88 | CCCCCTTC | -0.4
89 | CTAAAAGC | -0.0417
90 | AGCGCTTC | -0.0605
91 | CAAAATGG | -0.118
92 | CCCGAACG | -0.166
93 | TAACGGAA | 0.0503
94 | CACTTGGG | -0.313
95 | ACCCGGGT | -0.236
96 | CTCGAGGA | -0.0345
97 | ACGGGACC | -0.36
98 | AAGAGCAT | 0.0596
99 | ACATGGTG | 0.143
100 | AGTATCAG | -0.0488

Row | Sequence | PBM E-score
101 | ATGGCAAG | -0.123
102 | CTGATCCC | -0.269
103 | CTACATAG | 0.0305
104 | AAGCTCAC | -0.141
105 | AGATGGCT | -0.102
106 | CCCCTCGG | -0.141
107 | GCTTGCGA | 0.0471
108 | ATTCATTG | 0.0712
109 | ACCACGAC | 0.128
110 | GCCAATAC | -0.0762
111 | ATAAGTGA | 0.144
112 | AGCGTAGA | -0.0243
113 | AGCTGCCC | -0.138
114 | AATCAGGA | -0.0594
115 | ACAACGGA | 0.00163
116 | ATCACATG | 0.0961
117 | GACCCGCC | 0.0386
118 | AATTGAAT | 0.103
119 | CCACCACC | -0.219
120 | ATCCGCGG | -0.0772
121 | CTACCACC | -0.201
122 | GTGACCCA | -0.0483
123 | CGTGCACG | 0.259
124 | GATGTTTA | 0.128
125 | ATAATAGA | 0.163

Row | Sequence | PBM E-score
126 | CGACCACC | -0.243
127 | ATACACGA | 0.124
128 | AGACAGGC | -0.376
129 | AAGGTCCT | -0.168
130 | AATCGAGT | -0.0426
131 | CATACATA | 0.285
132 | CGATACCC | -0.058
133 | AATAACGA | 0.212
134 | AGTGTTCG | -0.00769
135 | TCATAACA | 0.268
136 | ATCTCTAA | 0.00152
137 | CCTTACGA | 0.145
138 | TAAAATTA | 0.276
139 | AGAACCCG | -0.129
140 | ATTTATCC | 0.0903
141 | CACATAGA | 0.0235
142 | GAAATTAA | 0.289
143 | CACTCTCA | -0.0435
144 | ACAGATCA | -0.0549
145 | GGCGTGGA | -0.168
146 | CTCCGTTC | -0.127
147 | AATCTAGC | -0.126
148 | GCATCAGC | -0.125
149 | TCCCAAAA | -0.048
150 | TAGCATCA | 0.186

Row | Sequence | PBM E-score
151 | CACAGACC | -0.0703
152 | CAAGCAGG | -0.249
153 | AATCTGAA | 0.127
154 | CGTCTCGC | -0.0776
155 | AGCAACTC | -0.164
156 | ACGGCCAA | -0.178
157 | ATCAGACC | -0.0486
158 | GATGTAGC | -0.0207
159 | GGAAGTCC | -0.386
160 | ATCGCAAC | 0.0527
161 | AATGAGCT | 0.127
162 | AATATGCA | -0.0191
163 | ACCTCTTA | 0.0216
164 | AAAGGCTC | -0.235
165 | TCTCACAA | 0.0132
166 | CTGATTCA | 0.00536
167 | CGTCGATA | 0.146
168 | ATCAAAAC | 0.0239
169 | GACTATCA | -0.086
170 | CAGTTGGA | -0.0219
171 | GAAGAGTC | -0.013
172 | CCCTGATA | -0.149
173 | ACGGATGG | -0.14
174 | ATGTTAAA | 0.205
175 | CATTGCCC | -0.384

Row | Sequence | PBM E-score
176 | AGGGCGAG | -0.282
177 | AGTAATCC | 0.0657
178 | ACGAGGGC | -0.178
179 | GCCTCATA | 0.0655
180 | ACTGGTCG | -0.352
181 | GACAGCAA | -0.0173
182 | CGGTAAAG | -0.0232
183 | ACTCAAGC | -0.118
184 | GATCGCAC | 0.0864
185 | CTGGACCC | -0.326
186 | ACGATCTA | 0.0711
187 | AGCGATTC | 0.0152
188 | ATTTTATC | 0.166
189 | AGAGGCCC | -0.45
190 | GCCAACCC | -0.167
191 | GAGGTTAA | -0.0755
192 | ACGCTACC | -0.128
193 | AAATACGA | 0.302
194 | ACTCCTTG | -0.0755
195 | AGTGAACG | -0.00836
196 | CCATAGTA | -0.0911
197 | CTGCTACC | -0.0769
198 | CAATTACC | 0.156
199 | GCTTAGTA | -0.0128
200 | ATTCTCGA | 0.114

Row | Sequence | PBM E-score
201 | ATCGTGAC | 0.256
202 | CTTCGGTC | -0.0632
203 | ATCTAAAT | 0.164
204 | CTTTCGCA | -0.0437
205 | AACTAAAC | 0.0828
206 | CGCCGGAG | -0.179
207 | GCCATCGA | -0.101
208 | CAGGAGGC | -0.0762
209 | CGGCAAAA | 0.00383
210 | CACGAGGC | -0.109
211 | GGGGTCCA | -0.214
212 | ACGAGGCA | -0.0329
213 | CAAGGTAG | -0.224
214 | CGGTCGTA | -0.208
215 | GCAAAAGC | -0.0091
216 | AAGCAATT | 0.025
217 | AGATGTGA | 0.125
218 | TATGAAGA | 0.153
219 | GCATTTTA | 0.111
220 | CGTGTGAG | 0.212
221 | CATCGACC | -0.0723
